In test [1] the target is VC155-tagged WWP2 (human) (UniProt O00308). Put plainly: split reporter; bimolecular fluorescence complementation in HEK-293 cells co-transfected for 48 h, without SEMA3G; fixed cells, confocal microscopy; CFP signal for Cdc42 with WWP2.
Test [2] deals with T1, MYC-tagged FBXL3 (human) (UniProt Q9UKT7).
T1 sequence: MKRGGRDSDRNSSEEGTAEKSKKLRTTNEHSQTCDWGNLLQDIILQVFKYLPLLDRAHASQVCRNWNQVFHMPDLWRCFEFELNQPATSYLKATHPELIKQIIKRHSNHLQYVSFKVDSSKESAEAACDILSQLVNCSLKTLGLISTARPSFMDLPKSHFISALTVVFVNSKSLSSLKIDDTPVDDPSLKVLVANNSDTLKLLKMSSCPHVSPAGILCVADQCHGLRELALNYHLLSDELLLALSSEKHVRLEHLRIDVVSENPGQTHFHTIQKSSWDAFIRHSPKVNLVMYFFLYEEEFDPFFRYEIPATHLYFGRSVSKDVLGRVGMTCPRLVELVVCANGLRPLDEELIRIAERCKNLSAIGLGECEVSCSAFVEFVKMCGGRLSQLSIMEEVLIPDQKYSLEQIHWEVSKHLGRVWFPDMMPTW
Put plainly: co-IP; HEK-293 cells co-transfected with tagged proteins for 48 h; IP buffer 20 mM Tris-HCl, 150 mM NaCl, 1% Triton X-100, 0.5% sodium deoxycholate; tag antibodies overnight at 4 °C, Protein A/G beads, immunoblot; in Fig. 7G, J also with Flag-c-Myc and HA-ubiquitin, in Fig. 7J with or without SEMA3G (200 ng/ml) for 48 h.

Protein sequences, listed by entry. Tags and fused reporters are not part of them. Lines headed by an entry give the natural chain unless they say otherwise; changes in a name come on top. Residues count along the entry.
UniProt O00308: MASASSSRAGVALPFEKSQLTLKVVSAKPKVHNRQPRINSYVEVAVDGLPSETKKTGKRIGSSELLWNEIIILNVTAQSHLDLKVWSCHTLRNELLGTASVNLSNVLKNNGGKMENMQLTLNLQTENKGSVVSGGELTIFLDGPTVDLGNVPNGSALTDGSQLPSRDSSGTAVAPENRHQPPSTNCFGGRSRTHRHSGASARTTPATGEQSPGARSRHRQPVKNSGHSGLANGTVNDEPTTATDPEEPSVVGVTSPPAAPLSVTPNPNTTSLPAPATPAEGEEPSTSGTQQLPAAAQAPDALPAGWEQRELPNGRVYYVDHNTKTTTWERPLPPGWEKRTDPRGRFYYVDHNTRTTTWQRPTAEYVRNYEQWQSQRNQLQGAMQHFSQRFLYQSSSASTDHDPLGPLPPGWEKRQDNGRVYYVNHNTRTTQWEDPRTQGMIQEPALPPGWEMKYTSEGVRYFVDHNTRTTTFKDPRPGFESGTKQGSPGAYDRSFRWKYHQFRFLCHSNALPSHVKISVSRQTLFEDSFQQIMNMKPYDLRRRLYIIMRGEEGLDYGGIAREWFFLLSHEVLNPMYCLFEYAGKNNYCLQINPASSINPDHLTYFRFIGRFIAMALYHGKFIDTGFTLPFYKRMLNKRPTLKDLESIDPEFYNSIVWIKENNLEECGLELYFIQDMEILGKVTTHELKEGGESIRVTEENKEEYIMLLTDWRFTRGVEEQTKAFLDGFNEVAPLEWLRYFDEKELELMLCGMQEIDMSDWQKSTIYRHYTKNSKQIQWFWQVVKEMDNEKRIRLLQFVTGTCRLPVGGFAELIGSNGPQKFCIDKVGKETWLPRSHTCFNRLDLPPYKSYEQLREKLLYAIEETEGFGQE
UniProt Q9UKB1: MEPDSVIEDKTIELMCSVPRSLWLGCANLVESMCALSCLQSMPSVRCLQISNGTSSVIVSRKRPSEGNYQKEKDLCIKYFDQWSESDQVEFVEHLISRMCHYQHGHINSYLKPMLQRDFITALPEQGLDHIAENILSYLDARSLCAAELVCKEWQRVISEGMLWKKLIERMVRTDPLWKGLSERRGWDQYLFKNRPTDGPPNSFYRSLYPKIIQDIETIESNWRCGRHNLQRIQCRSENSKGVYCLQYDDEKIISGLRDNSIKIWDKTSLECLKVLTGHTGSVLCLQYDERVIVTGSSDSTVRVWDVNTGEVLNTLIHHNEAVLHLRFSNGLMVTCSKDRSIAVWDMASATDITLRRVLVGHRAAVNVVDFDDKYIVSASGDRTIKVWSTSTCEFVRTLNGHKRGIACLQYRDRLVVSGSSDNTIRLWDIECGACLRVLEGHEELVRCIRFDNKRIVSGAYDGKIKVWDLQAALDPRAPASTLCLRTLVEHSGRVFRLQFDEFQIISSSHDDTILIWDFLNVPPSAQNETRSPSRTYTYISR
UniProt O95155: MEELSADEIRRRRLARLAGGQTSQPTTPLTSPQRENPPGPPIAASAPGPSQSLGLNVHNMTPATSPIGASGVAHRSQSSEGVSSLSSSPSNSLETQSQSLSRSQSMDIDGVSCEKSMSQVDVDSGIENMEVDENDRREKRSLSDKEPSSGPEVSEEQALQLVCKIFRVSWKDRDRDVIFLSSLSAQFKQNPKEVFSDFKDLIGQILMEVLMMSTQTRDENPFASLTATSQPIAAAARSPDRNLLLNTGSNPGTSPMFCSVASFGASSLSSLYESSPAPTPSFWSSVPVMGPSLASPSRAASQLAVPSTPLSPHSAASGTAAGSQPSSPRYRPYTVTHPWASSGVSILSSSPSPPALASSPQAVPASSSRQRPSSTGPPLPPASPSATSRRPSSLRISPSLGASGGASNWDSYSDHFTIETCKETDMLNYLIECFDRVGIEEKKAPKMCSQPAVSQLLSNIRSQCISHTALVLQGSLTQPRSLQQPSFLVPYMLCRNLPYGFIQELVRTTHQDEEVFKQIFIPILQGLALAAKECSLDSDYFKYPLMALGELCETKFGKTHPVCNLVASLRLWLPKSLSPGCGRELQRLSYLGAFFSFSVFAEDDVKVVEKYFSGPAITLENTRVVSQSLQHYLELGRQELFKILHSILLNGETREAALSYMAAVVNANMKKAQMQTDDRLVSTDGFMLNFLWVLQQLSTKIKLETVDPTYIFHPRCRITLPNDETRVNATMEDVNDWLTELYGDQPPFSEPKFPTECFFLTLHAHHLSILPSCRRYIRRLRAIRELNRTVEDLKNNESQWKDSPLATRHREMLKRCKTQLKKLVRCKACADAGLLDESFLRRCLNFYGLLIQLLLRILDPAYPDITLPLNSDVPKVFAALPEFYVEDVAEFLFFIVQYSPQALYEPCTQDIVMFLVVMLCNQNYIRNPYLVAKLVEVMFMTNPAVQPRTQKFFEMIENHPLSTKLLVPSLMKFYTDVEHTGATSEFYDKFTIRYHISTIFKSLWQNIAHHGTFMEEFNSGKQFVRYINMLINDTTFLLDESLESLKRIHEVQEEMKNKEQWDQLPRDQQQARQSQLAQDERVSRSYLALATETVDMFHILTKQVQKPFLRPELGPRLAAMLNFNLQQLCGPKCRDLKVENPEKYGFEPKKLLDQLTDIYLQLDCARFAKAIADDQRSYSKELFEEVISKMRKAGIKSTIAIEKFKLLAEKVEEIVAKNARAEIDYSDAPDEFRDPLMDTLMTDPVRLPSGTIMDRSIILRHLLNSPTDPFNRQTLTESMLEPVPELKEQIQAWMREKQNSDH
UniProt P60953: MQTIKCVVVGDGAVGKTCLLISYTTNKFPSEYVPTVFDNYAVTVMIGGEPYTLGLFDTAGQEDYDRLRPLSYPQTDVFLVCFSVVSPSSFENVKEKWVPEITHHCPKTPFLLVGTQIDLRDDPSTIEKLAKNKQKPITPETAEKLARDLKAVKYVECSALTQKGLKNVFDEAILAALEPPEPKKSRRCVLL
UniProt P01106, residues 16-454: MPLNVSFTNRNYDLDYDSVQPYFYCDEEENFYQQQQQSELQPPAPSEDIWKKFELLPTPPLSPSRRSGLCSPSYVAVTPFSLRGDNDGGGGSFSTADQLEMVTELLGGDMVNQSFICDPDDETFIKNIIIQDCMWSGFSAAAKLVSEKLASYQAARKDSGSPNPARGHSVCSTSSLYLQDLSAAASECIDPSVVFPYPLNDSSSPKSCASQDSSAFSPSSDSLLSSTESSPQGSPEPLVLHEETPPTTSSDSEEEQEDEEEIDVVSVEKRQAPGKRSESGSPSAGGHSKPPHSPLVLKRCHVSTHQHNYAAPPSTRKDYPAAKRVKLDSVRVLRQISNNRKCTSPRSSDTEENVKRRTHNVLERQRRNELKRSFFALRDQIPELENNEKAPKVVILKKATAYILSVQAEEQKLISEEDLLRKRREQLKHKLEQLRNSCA
UniProt Q9UIW2, residues 27-1896: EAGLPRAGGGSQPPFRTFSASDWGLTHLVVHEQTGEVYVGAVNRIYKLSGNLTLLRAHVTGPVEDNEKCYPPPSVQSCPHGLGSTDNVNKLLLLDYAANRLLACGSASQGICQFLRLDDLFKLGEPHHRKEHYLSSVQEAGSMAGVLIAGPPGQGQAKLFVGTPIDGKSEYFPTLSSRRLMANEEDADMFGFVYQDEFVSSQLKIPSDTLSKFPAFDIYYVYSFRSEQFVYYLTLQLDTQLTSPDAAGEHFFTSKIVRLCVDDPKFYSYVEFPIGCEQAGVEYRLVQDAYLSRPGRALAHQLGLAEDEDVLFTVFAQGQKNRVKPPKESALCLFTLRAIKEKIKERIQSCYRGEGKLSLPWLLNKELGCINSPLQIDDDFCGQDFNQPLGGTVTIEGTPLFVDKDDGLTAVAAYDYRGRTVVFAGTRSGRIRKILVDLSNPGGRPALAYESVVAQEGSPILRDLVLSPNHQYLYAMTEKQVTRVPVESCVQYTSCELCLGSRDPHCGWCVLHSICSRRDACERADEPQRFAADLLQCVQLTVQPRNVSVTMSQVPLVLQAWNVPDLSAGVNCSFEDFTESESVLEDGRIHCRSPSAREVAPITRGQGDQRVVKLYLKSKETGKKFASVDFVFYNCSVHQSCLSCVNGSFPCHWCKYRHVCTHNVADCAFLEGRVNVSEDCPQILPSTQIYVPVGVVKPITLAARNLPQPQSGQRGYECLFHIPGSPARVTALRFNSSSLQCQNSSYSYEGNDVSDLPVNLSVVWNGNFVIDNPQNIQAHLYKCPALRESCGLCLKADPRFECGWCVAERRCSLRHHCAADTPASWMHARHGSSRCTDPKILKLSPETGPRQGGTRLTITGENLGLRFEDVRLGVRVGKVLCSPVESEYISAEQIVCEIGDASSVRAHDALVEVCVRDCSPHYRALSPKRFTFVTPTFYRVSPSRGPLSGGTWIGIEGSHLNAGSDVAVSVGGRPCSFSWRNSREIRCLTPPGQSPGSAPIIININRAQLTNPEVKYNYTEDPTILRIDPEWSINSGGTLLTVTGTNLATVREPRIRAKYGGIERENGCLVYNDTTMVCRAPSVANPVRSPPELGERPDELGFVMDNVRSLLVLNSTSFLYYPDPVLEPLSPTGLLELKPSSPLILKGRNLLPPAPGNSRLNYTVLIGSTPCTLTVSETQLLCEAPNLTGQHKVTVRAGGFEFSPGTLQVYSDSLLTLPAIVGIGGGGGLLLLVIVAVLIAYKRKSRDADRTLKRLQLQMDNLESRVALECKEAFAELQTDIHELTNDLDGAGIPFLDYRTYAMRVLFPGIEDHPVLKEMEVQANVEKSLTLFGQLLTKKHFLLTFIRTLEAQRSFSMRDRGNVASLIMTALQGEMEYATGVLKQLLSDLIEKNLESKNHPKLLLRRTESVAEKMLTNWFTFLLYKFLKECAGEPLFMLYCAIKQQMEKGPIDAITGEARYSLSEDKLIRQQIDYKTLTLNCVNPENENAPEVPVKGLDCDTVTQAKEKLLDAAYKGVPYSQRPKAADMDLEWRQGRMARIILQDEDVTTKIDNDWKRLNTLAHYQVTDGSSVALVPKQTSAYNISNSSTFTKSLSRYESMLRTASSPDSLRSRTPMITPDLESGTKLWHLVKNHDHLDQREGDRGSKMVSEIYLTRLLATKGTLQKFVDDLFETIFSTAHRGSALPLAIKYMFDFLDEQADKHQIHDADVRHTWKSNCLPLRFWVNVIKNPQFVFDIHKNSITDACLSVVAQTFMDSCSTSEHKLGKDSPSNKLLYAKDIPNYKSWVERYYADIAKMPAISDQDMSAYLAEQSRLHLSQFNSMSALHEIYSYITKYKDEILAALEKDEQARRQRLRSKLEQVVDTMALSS
UniProt Q9NS98, residues 23-782: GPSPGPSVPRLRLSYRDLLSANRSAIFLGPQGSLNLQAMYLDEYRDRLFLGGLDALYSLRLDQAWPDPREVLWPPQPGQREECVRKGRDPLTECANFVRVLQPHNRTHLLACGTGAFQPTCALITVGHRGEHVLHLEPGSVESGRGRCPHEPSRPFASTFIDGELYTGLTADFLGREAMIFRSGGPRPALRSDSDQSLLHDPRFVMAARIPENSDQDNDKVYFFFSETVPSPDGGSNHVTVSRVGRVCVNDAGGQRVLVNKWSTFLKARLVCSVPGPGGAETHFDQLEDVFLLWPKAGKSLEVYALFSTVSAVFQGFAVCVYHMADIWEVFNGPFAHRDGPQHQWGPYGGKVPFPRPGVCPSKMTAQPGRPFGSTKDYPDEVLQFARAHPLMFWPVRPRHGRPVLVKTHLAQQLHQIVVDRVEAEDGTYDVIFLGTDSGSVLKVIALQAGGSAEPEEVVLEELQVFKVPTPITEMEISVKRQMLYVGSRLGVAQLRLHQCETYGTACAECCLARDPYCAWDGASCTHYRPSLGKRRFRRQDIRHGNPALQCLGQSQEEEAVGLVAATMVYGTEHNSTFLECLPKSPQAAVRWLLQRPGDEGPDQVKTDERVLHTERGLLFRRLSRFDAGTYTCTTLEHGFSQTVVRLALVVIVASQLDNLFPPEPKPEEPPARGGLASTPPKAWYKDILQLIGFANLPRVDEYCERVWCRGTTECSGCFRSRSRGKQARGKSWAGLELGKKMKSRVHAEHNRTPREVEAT

Test [3] concerns the target MYC-tagged FBXW11 (human) (UniProt Q9UKB1). The description is as above.
For test [4], the target named is T2, MYC-tagged UBE4A (human) (UniProt Q14139).
T2 sequence: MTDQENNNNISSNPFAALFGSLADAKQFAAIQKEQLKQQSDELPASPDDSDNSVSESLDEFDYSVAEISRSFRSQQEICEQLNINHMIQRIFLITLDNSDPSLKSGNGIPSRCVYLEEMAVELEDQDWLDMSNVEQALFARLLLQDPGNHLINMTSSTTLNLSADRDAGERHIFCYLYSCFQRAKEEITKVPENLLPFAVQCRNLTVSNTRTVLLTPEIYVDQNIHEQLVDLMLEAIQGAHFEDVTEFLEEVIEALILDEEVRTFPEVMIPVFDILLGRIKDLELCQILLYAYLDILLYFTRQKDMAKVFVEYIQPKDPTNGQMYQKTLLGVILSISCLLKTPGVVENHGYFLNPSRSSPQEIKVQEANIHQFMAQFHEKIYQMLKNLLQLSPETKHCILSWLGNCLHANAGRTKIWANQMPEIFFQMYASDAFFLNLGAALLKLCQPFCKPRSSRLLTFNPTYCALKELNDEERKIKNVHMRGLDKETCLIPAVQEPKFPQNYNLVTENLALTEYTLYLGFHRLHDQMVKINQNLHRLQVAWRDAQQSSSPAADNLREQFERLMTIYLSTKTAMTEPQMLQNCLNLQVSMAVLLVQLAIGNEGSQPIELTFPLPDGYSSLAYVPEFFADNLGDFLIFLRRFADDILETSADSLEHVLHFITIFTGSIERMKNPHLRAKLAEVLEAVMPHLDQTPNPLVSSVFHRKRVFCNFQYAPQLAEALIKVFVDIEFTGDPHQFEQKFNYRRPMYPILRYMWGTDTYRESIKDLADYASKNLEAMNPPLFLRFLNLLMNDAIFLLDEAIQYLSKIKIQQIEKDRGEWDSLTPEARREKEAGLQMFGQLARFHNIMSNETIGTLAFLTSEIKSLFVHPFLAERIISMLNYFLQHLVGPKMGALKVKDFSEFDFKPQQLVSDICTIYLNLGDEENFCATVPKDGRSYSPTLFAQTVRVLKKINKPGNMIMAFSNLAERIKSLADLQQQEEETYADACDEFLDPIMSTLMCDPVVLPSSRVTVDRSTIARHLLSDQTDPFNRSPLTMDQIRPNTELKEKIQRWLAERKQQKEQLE
Described as above.

Test [5] concerns the target MYC-tagged UBE4B (human) (UniProt O95155). The description is as above.
The target of test [6] is T3, MYC-tagged UBOX5 (human) (UniProt O94941).
T3 sequence: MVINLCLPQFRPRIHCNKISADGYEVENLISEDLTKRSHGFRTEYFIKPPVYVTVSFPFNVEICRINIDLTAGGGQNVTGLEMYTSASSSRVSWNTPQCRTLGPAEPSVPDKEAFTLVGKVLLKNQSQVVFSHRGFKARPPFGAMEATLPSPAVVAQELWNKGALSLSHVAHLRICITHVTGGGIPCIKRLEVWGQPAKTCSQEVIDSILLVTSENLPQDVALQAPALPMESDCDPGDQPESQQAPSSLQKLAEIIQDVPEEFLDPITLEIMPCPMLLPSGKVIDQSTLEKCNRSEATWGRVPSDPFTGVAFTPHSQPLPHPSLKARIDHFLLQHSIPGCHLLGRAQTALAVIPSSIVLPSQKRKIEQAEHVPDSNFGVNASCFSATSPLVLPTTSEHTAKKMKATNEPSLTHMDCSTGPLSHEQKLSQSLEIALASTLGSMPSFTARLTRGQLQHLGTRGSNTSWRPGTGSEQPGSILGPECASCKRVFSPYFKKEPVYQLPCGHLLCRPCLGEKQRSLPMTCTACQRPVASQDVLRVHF
Described as above.

Test [7] addresses MYC-tagged WWP2 (human) (UniProt O00308). The description is as above.
In test [8] the target is T4, HA-tagged NRP2 (human) (UniProt O60462).
T4 sequence: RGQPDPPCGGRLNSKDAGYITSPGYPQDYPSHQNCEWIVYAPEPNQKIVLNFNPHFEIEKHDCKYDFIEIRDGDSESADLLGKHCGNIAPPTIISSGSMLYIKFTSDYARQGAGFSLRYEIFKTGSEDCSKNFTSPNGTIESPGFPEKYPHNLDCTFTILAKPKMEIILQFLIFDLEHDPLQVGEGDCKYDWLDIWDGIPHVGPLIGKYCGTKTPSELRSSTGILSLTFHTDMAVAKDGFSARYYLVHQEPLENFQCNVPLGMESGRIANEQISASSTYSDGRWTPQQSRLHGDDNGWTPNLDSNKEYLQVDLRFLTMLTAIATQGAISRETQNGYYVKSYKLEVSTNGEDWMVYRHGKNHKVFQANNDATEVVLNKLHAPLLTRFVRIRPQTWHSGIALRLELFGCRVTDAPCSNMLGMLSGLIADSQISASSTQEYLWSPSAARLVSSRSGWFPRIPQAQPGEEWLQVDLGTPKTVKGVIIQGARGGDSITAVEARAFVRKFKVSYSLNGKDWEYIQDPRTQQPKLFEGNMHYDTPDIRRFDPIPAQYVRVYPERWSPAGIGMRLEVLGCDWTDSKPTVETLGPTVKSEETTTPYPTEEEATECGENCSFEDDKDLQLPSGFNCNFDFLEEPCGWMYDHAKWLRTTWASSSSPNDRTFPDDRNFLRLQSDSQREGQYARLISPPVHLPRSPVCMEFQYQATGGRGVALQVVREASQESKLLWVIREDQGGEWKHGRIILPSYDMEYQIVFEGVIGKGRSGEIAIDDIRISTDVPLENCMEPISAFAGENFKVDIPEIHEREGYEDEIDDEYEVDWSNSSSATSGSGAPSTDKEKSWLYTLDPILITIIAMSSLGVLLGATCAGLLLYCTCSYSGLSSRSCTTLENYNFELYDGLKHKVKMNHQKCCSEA
Described as above.

Test [9] has as its target VC155-tagged WWP2 (human) (UniProt O00308). Put plainly: split reporter; bimolecular fluorescence complementation in HEK-293 cells co-transfected for 12 h and then incubated with SEMA3G (200 ng/ml) for 48 h; confocal microscopy; CFP signal for Cdc42 with WWP2, Venus signal for WWP2 with c-Myc.
The target of test [10] is T5, NRP2 (endogenous, GSC07 tumour tissue and GSC cells) (human (endogenous in GSC07 xenograft tumour; host tissue is mouse)) (UniProt O60462).
T5 sequence: T4 sequence
Put plainly: alkaline phosphatase ligand binding assay; brain sections of GSC07 tumour-bearing nude mice incubated with AP-SEMA3G (2 nM) for 90 min at room temperature, endogenous AP inactivated at 65 °C, BCIP/NBT colour development; with or without pre-incubation with an NRP2-neutralizing antibody.

The target in test [11] is endogenous WWP2 (GSC07 cells) (human (endogenous in GSC07)) (UniProt O00308). Put plainly: co-IP; endogenous proteins in GSC07 cell lysate; IP buffer 20 mM Tris-HCl, 150 mM NaCl, 1% Triton X-100, 0.5% sodium deoxycholate; immunoblot.

No constants are given. Whether binding was seen depends on the method and setting. For some assays here: Binding seen in cells or lysates may run through a third protein. Some entries that bind do so weakly or less than the wild type. For some assays here: Where a sequence is shown, tags or fusion partners need not be part of it.

Consider “CrN173-tagged Cdc42^Q61L (from UniProt P60953 1-191)”, for which the binding result in [1] is “binds”.

For “CrN173-tagged Cdc42^T17N (from UniProt P60953 1-191)”, in test [1], the binding entry is given as “binds weakly”.

Take “CrN173-tagged Cdc42^WT (from UniProt P60953 1-191)”: the binding entry in test [1] is reported as “binds”.

With “Flag-tagged c-Myc (from UniProt P01106-1 1-439)”, the binding result is “no binding” in [2]; “no binding” in [3]; “no binding” in test [4]; “no binding” in test [5]; “no binding” in [6]; “binds” in test [7].

As to “GFP-tagged Cdc42^WT (from UniProt P60953 1-191)”, the binding result in [7] is reported as “binds”.

Turning to “MYC-tagged PLXNA1 (from UniProt Q9UIW2 27-1896) (receptor)”, the binding result in test [8] is “binds”.

Turning to “VN173-tagged c-Myc (from UniProt P01106-1 1-439)”, the binding result in test [9] is recorded as “binds”.

As to “alkaline phosphatase-tagged (AP-tagged) recombinant SEMA3G-AP (from UniProt Q9NS98 23-782) (ligand)”, the binding result in test [10] was “binds”.

As for “endogenous c-Myc (GSC07 cells) (from UniProt P01106-1 1-439)”, the binding result in [11] is “binds”.

The values are drawn from publication PMC12669739.
